# Laboratory results as given in PubChem BioAssay AID686978 (National Center for Advancing Translational Sciences (NCATS), 2013).
# Where “and” joins values, the source holds several entries; their conditions need not be identical. Equal values may be shown once. Out of some 420,000 compounds screened, about 64,000 (15%) were called active. Inconclusive results, whose numbers are uncertain, are shown with a selection of clear calls. Calls follow the shape of the dose curve; as a rule, active = well fitted inhibition curve with a large enough effect; inconclusive = small, poorly fitted or top-dose-only effect; inactive = flat fitted curve, though single readings scatter. Where the call is inconclusive, the potency comes from a doubtful curve fit.
# Assay: qHTS for Inhibitors of human tyrosyl-DNA phosphodiesterase 1 (TDP1): qHTS in cells in absence of CPT; also: nearly all actives have a fitted effect of over 55% in size
# Conditions: DT40 Tdp1-/- hTDP1 cells, no CPT, ATP luminescence, 48 h; activity change, negative = growth inhibition: at 46.2 µM (top of the series) unless noted
# Summary of the method: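 DT40 Tdp1-/-;hTDP1 cells, no CPT (DMSO vehicle only), 400 cells/well; compounds pin-transferred; ≥48 hr, 37 °C; CellTiter-Glo 30 min RT dark, luminescence read.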
# % is scaled to controls: 0 for no effect and ±100 for the full control effect; potency is read from the fitted curve at half-maximal effect; tags tell the direction and shape of the fitted curve.
SMILES,Potency,"activity change, negative = growth inhibition"
C[C@@H]1CN([C@H](C)CO)C(=O)c2cc(-c3ccc(F)cc3)cnc2O[C@H]1CN(C)C(=O)c1ccc(F)cc1,"inconclusive: 20.6 µM [inhibitor, partial curve, poor fit]",
O=C(NNS(=O)(=O)c1ccc(Cl)cc1Cl)c1cc2ncc(C(F)(F)F)cc2s1,"inconclusive: 16.4 µM [inhibitor, single point]",
Brc1ccc(OCCOCCOc2cccc3cccnc23)cc1,active: 23.1 µM,
O=c1c(S(=O)(=O)c2ccccc2)cn(Cc2ccccc2)c2cc(N3CCCC3)c(F)cc12,,inactive: 0.112%
CCOc1ccc(N(Cc2ccccc2)C(=O)c2nc(SC)ncc2Cl)cc1,active: 6.51 µM,
CCOc1ccc(NC(=O)c2cnccn2)cc1,"inconclusive: 29.1 µM [inhibitor, single point]",
O=C(c1cc(-c2ccccc2)on1)N(Cc1cccnc1)C(c1ccccn1)c1nc2ccccc2[nH]1 (stereo not drawn),"inconclusive: 18.4 µM [inhibitor, single point]",
Cc1nc2cnc(N(C)C)nc2n(C)c1=O,,inactive: -4.81%
COc1ccc(OC)c(NC(=O)c2cccc(N3C(=O)C4C5C=CC(C6CC56)C4C3=O)c2)c1 (stereo not drawn),active: 11.6 µM,
Cc1cc(C)cc(C(=O)NCCc2sc(-c3ccc(F)cc3)nc2C)c1,active: 20.6 µM,
Cc1ccc(Nc2nc(-c3ccc(O)cc3O)cs2)nc1,"inconclusive: 29.1 µM [inhibitor, single point]",
Cc1ccc2nc(SCC(=O)N3CCC(C)CC3)nc(=O)n2c1,,inactive: -15.3%
Cn1cc(Br)c(C(=O)NNC(=O)Nc2ccccc2C(F)(F)F)n1,,inactive: -16.9%
COc1cccc(NC(=O)CCc2nnc3ccc(N4CCC(C)CC4)nn23)c1,"inconclusive: 20.6 µM [inhibitor, single point]",
COc1ccc2ccccc2c1/C=N/n1cnnc1,"inconclusive: 6.51 µM [inhibitor, single point]",
Nc1nc(CN2CCN(c3ccccc3)CC2)nc(Nc2ccc(Cl)cc2)n1,"inconclusive: 18.4 µM [inhibitor, single point]",
O=C(NCc1cccs1)c1ccc(N2CCCC2=O)cc1,"inconclusive: 20.6 µM [inhibitor, single point]",
COc1ccc(-c2[nH]ncc2CN2C[C@@H]3CCC[C@H]2C3)c(F)c1,"inconclusive: 29.1 µM [inhibitor, single point]",
CCCOc1ccc(C(=O)NCC2OCCc3ccccc32)cc1OC (stereo not drawn),"inconclusive: 18.4 µM [inhibitor, single point]",
C=CCc1cc(C)ccc1OCC(O)CN1CCN(c2ccccc2)CC1 (stereo not drawn),"inconclusive: 25.9 µM [inhibitor, single point]",
CCCCC(=O)N(C)c1c(CC)nc2c(OCc3cc(Cl)cc(Cl)c3)cccn12,"inconclusive: 29.1 µM [inhibitor, single point]",
CCCC(NC(=S)NCC1CCCO1)C12CC3CC(CC(C3)C1)C2 (stereo not drawn),"inconclusive: 29.1 µM [inhibitor, single point]",
O=C(CN1C(=O)NC2(CCCC2)C1=O)Nc1ccc(C(F)(F)F)cc1,"inconclusive: 13 µM [inhibitor, single point]",

SMILES,Potency,"activity change, negative = growth inhibition"
CNC(=O)c1cc(NC(=O)CCn2nc(-c3ccc(C)cc3)c3ccccc3c2=O)ccc1OC,"inconclusive: 18.4 µM [inhibitor, single point]",
Cc1ccccc1-c1coc2cc(O)ccc2c1=O,"inconclusive: 9.2 µM [inhibitor, partial curve]",
Cc1ccc(S(=O)(=O)NCc2ccc3[nH]c(C)cc3c2)cc1,"inconclusive: 25.9 µM [inhibitor, single point]",
COc1cc(S(=O)(=O)N2CCCCCC2)ccc1Cl,"inconclusive: 29.1 µM [inhibitor, single point]",
Cc1ccc2ncnc(-c3ccccc3)c2c1,"inconclusive: 16.4 µM [inhibitor, single point]",
COc1cc(OC)cc(-c2c(-c3cccs3)c3cc(-c4ccc5c(c4)OCO5)ccc3n2C)c1,"inconclusive: 11.6 µM [inhibitor, partial curve]",
S=c1[nH]nc(-c2ccc(Cl)cc2Cl)n1-c1ccccc1,,inactive: -18.5%
N#Cc1ccc(NC(=O)COCc2cc(-c3ccco3)on2)cc1,"inconclusive: 29.1 µM [inhibitor, single point]",
CCOC(=O)C1=C(C)N(C[C@@H]2CC[C@@H](Cc3ccc(-c4ccccc4)cc3)O2)C(=O)NC1c1ccc(-c2ccccc2)cc1 (stereo partly drawn),"inconclusive: 23.1 µM [inhibitor, single point]",
CCCCc1c(C)nc2nc(SCc3ccc(Cl)cc3)[nH]n2c1=O,"inconclusive: 29.1 µM [inhibitor, single point]",
NC(=O)CC(NC(=O)c1ccc(Br)cc1)c1ccc(N2CCCCCCC2)c([N+](=O)[O-])c1 (stereo not drawn),active: 10.3 µM,
CCOC(=O)C1CCCN(S(=O)(=O)c2ccc(OC)cc2)C1 (stereo not drawn),,inactive: -15.3%
CCN1CC(CN(C)Cc2cn(-c3ccc(C)cc3)nc2-c2ccc(F)cc2)CC1=O (stereo not drawn),"inconclusive: 23.1 µM [inhibitor, single point]",
CC(C)(C)c1cc(C(=O)NCc2cc(F)cc3c2OCOC3)n(Cc2ccccc2)n1,"inconclusive: 29.1 µM [inhibitor, single point]",
Cc1cc(-c2ccc(C)c(S(=O)(=O)NCCN3CCC(C)CC3)c2)on1,,inactive: -20.7%
Cc1cccc(-n2c(-c3ccoc3C)n[nH]c2=S)c1,,inconclusive: -38.2% [inhibitor]
CCCCC(=O)Nc1ccc(C(=O)N2CCC(C(=O)OCC)CC2)cc1,,inactive: 0.142%
CC(C)c1ccc(CNc2nc(-c3ccco3)nn2S(=O)(=O)c2ccc(F)cc2)cc1,"inconclusive: 5.17 µM [inhibitor, full curve, poor fit]",
COc1ccc(CCCNC(=O)C2(C)Cc3c(-c4ccc(C(N)=O)cc4)ccnc3O2)cc1 (stereo not drawn),"inconclusive: 20.6 µM [inhibitor, single point]",
CC(=O)Nc1ccc(NC(=O)Cn2nc([N+](=O)[O-])c(Br)c2C)cc1,,inactive: -19.2%
Cc1cccc(N2CCN(Cc3cc(=O)oc4cc(C)ccc34)CC2C)c1 (stereo not drawn),"inconclusive: 23.1 µM [inhibitor, single point]",
O=C(NCCSCc1ccccc1)c1ccc(Cl)c(S(=O)(=O)N2CCOCC2)c1,"inconclusive: 23.1 µM [inhibitor, single point]",
COc1cccc2c(=O)c(C(=O)O)c[nH]c12,,inactive: -16.3%

SMILES,Potency,"activity change, negative = growth inhibition"
CCCC1(C(=O)OC)NC(c2ccco2)C2C(=O)N(C)C(=O)C21 (stereo not drawn),,inactive: 10.1%
CCOc1ccc(OCC(=O)NCCS(=O)(=O)N2CCN(c3cccc(Cl)c3)CC2)cc1,"inconclusive: 8.2 µM [inhibitor, partial curve]",
COc1ccc(Cc2nc3ccc(C(=O)NCc4cc(C)no4)cc3o2)cc1OC,"inconclusive: 16.4 µM [inhibitor, single point]",
Cc1nc(-c2c(C(F)(F)F)noc2-c2ccc(O)cc2O)cs1,"inconclusive: 23.1 µM [inhibitor, partial curve]",
CCN(CC)C(=O)CN(c1cc2c(cc1OC)oc1ccccc12)S(=O)(=O)c1ccccc1,"inconclusive: 29.1 µM [inhibitor, single point]",
CCCN(C(=O)c1ccc(OCC(C)C)cc1)c1c(N)n(Cc2ccccc2)c(=O)[nH]c1=O,,inactive: 2.03%
CC(C)(C)C1CCc2onc(C(=O)Nc3sc4c(c3C#N)CCCC4)c2C1 (stereo not drawn),,inactive: -16.6%
CC(=O)Nc1ccc(S(=O)(=O)NC(C)C(=O)NC(C)c2ccccc2)cc1 (stereo not drawn),"inconclusive: 4.11 µM [inhibitor, partial curve, poor fit]",
O=S(=O)(c1ccc(F)c(F)c1)N1CCC2(CC1)OCCO2,,inactive: 5.71%
O=C(COc1cccc2ccccc12)N1CCN(c2ccccn2)CC1,"inconclusive: 29.1 µM [inhibitor, single point]",
CCOC(=O)c1c(C)[nH]c(C(=O)Cn2c(=O)c3c(ncn3CC)n(Cc3ccccc3)c2=O)c1C,"inconclusive: 29.1 µM [inhibitor, single point]",
CCN(CC)/C(=N\S(=O)(=O)c1ccc(F)cc1)c1ccccc1,,inactive: -6.44%
CC1CCCC(NC(=O)COC(=O)CCC2CCCC2)C1C (stereo not drawn),,inactive: -1.5%
Cc1nc(-c2ccccc2)sc1C(=O)NS(=O)(=O)c1ccc(CN2CCN(c3ccccc3)CC2)cc1,,inactive: -0.123%
COc1cc(N)c(Cc2nccc3cc(OC)c(OC)cc23)cc1OC,"inconclusive: 5.17 µM [inhibitor, single point]",
CC(C(=O)Nc1cc([N+](=O)[O-])ccc1Cl)N1CCN(c2ccccc2O)CC1 (stereo not drawn),active: 13 µM,
Cn1c(=NC(=O)C2CCN(S(=O)(=O)c3cccs3)CC2)sc2ccccc21,"inconclusive: 16.4 µM [inhibitor, single point] and inconclusive: 6.51 µM [inhibitor, partial curve]",
COc1cc(/C=C/C(=O)OCC(=O)NC(=O)NC23CC4CC(CC(C4)C2)C3)ccc1OCC#N,active: 20.6 µM,
CCC(C)c1ccc(NC(=O)C2CCN(c3ccc(C(F)(F)F)cn3)CC2)cc1 (stereo not drawn),"inconclusive: 9.2 µM [inhibitor, partial curve]",
Cc1ccccc1NS(=O)(=O)c1ccc(C(=O)NCCCN2CCCC2=O)cc1,"inconclusive: 16.4 µM [inhibitor, single point]",
CN(CC(=O)Nc1ccccc1Cl)C(=O)c1cccc(-n2cccc2)c1,"inconclusive: 18.4 µM [inhibitor, partial curve]",
CC(=O)Nc1cc[n+](C(C)C(=O)c2ccc(Br)cc2)cc1 (stereo not drawn),"inconclusive: 13 µM [inhibitor, partial curve]",
